The campaign covered roughly 48,000 compounds. About 450 (0.94%) were called active. About 19% were inconclusive and are not listed. The call rests on the fitted dose curve; in most records, active means well fitted inhibition curve with a large enough effect; inconclusive means small, poorly fitted or top-dose-only effect; inactive means no such curve, though single readings can be large or run the other way. The list shows a part of the results.
test: Primary qHTS for Identification of Small Molecule Inhibitors of Huntingtin Promoter Activity; conditions: HEK293 HTT promoter firefly luciferase reporter (activity 0% = vehicle and -100% = no light), 24 h; series mostly up to 57.5 µM; activity change, negative = inhibition: at the top concentration; further: nearly all actives have a fitted effect of over 50% in size
Procedure, shortened: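 Quantitative HTS used concentration series of up to 57.5 uM final on HEK293 luciferase reporter cells, 24 h at 37 degrees C. Readout was Dual-Glo firefly luminescence.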
Potency means the concentration at half of the fitted maximal effect.

| Structure (SMILES) | activity change, negative = inhibition | Potency |
| --- | --- | --- |
| Cc1ccc(-n2c3c(c(=O)[nH]c2=O)C(NS(=O)(=O)c2ccc(C)cc2)(C(F)(F)F)C(=O)N3)cc1 (stereo unspecified) | inactive: -12.3% | – |
| CCOc1ccc(CN2C(=O)c3ccccc3Sc3ccc(C(=O)NCCc4ccccc4)cc32)cc1 | inactive: -10.8% | – |
| COc1ccc2[nH]cc(CCNC(=O)Nc3cccc(F)c3)c2c1 | inactive: -3.54% | – |
| CCOc1ccccc1NC(=O)c1cc2cc(C)ccc2n1C | inactive: -13.9% | – |
| COc1cccc(CNC(=O)c2ccc3c(c2)N(C)C(=O)C2CCCCN32)c1 (stereo unspecified) | inactive: -13.8% | – |
| CCc1ccc(NC(=O)C2CCC(CNS(=O)(=O)c3cccs3)CC2)cc1 (stereo unspecified) | inactive: 11.4% | – |
| COc1ccccc1NC(=O)C1=C(C)Nc2nc(-c3ccco3)nn2C1c1ccccc1 (stereo unspecified) | inactive: -17.8% | – |
| Cc1ccccc1NC(=O)c1c(NC(=O)c2ccncc2)sc2c1CCC(C(C)(C)C)C2 (stereo unspecified) | inactive: -21.2% | – |
| COc1ccc(Nc2nc3c(S(=O)(=O)c4ccc(Br)cc4)nnn3c3ccsc23)c(OC)c1 | inactive: -0.569% | – |
| CC1CCN(c2cc3c(cc2F)c(=O)c(S(=O)(=O)c2ccc(Cl)cc2)cn3C)CC1 | inactive: -4.83% | – |
| CNS(=O)(=O)c1cc(-c2nn3c(C)nnc3c3ccccc23)ccc1C | inactive: 49.5% | – |
| CCOC(=O)c1c(NC(=O)c2cc(-c3ccc(Cl)cc3)on2)sc2c1CCCC2 | inactive: -3.23% | – |
| CC(C)CCNC(=O)c1cn(C)c2ccc(S(=O)(=O)N3CCCC3)cc2c1=O | inactive: -9.06% [at 11.5 µM] | – |
| Cc1ccccc1OCc1cc(=O)n2c(-c3ccccc3)csc2n1 | inactive: 6.96% | – |
| CCC(=O)N1CCc2cc(Br)cc(S(=O)(=O)N3CCC(C(=O)N(CC)CC)CC3)c21 | inactive: -2.3% | – |
| CCn1cc(C(=O)N2CCN(c3cc(Cl)ccc3C)CC2)c(=O)c2cc(S(=O)(=O)N3CCOCC3)ccc21 | inactive: -16.4% | – |
| CCC1CCCCN1CCCNC(=O)c1[nH]c2ccccc2c1Sc1ccc(Cl)cc1 (stereo unspecified) | inactive: -27.3% | – |
| CCOc1ccc(C(c2c(O)cc(C)n(CCOC)c2=O)N2CCN(c3ccccc3)CC2)cc1 (stereo unspecified) | inactive: -4.32% | – |
| COc1cccc(CNC(=O)C(CC(C)C)NS(=O)(=O)c2ccc3c(c2)oc(=O)n3C)c1 (stereo unspecified) | inactive: -11.3% | – |
| Cc1c2cnn(CC(=O)N3CCCCC3)c(=O)c2c(C)n1Cc1ccc(F)cc1 | inactive: -0.115% | – |
| CCN(C(=O)CCS(=O)(=O)c1cc2[nH]c(=O)c(=O)[nH]c2cc1C)c1ccccc1 | inactive: 2.05% | – |
| Cc1ccc2c(c1)C(=O)OC(C(=O)Nc1ncc(Cc3ccc(C(C)C)cc3)s1)C2 (stereo unspecified) | inactive: -3.34% | – |
| Cc1ccc2sc(N3CCN(C(=O)CCS(=O)(=O)c4ccc(Cl)cc4)CC3)nc2c1C | inactive: 0% | – |
| CCCN(CCC)C(=O)Cn1c(=O)n(-c2cccc(OC)c2)c(=O)c2c(C)c(C(=O)N(C)C)sc21 | inactive: 3.95% | – |

| Structure (SMILES) | activity change, negative = inhibition | Potency |
| --- | --- | --- |
| Cc1ccc(N(CC(=O)N2CCN(c3ccc(Cl)cc3)CC2)S(=O)(=O)c2c(C)nn(C)c2C)cc1 | inactive: -12.9% | – |
| CCC(Sc1nc2ncccc2[nH]1)C(=O)Nc1cccc(OC)c1 (stereo unspecified) | inactive: -20.5% | – |
| COc1ccccc1CNC(=O)C1CCCN(C(=O)c2cnn(-c3ccc(F)cc3)c2-n2cccc2)C1 (stereo unspecified) | inactive: -29.8% | – |
| Cc1ccc(NC(=O)C(Cc2ccccc2)n2cccc2)cc1 (stereo unspecified) | inactive: -2.68% | – |
| COCCCn1c(=O)c2sccc2n2c(CCCC(=O)Nc3cc(C)cc(C)c3)nnc12 | inactive: -14.6% | – |
| CC(C)(Oc1ccc(CCNC(=O)c2ccc(Cl)cc2)cc1)C(=O)O | inactive: 12.4% | – |
| COc1ccc(CNC(=O)Cn2ncc3c4ccccc4n(Cc4cccc(Cl)c4)c3c2=O)cc1 | inactive: -7.96% | – |
| CN1CCc2c(sc3c2C(=O)NC(c2ccc(OC(=O)c4ccccc4)cc2)N3)C1 (stereo unspecified) | inactive: 87.1% | – |
| Cc1ccc(C)c(S(=O)(=O)c2cn(C)c3cc(N4CCCCC4C)c(F)cc3c2=O)c1 (stereo unspecified) | inactive: -1.52% | – |
| c1ccc(CC2=NCCN2)cc1 | inactive: 18.1% | – |
| Cc1cccc(-c2nc3c4ccccc4nc(N4CCN(c5ccccc5F)CC4)n3n2)c1 | inactive: 0.334% | – |
| Cc1ccc(CNC(=O)NCc2noc3ccc(C)cc23)cc1 | inactive: -3.14% | – |
| Cn1c(=O)c2c(-c3ccc(Cl)cc3)n(Cc3ccc(Cl)cc3)cc2n(C)c1=O | inactive: -10.1% | – |
| COC(=O)c1cc2sc(Cl)cc2n1Cc1c(C)cc(C)cc1C | inactive: -6.73% | – |
| COc1ccc(-c2c(C)c3ccc(O)c(CN4CCOCC4)c3oc2=O)cc1 | inactive: -17.3% | – |
| CCn1c2ccccc2c2cc(NC(=O)COc3ccc(C)cc3C)ccc21 | inactive: 0.846% | – |
| COc1ccc(OC)c(CNC(=O)c2ccc(C)c(NC(=O)c3nsc4ccccc34)c2)c1 | inactive: 12.5% | – |
| CCCCNC(=O)C1CCN(S(=O)(=O)CCC)CC1 | inactive: -6.4% | – |
| Cc1ccc(Cn2c(CNS(=O)(=O)c3cccc([N+](=O)[O-])c3)nc3cccnc32)cc1 | inactive: -9.82% | – |
| COc1ccc(-c2cc(C)no2)cc1S(=O)(=O)Nc1c(C)cc(C)cc1C | inactive: -29.9% | – |
| CCOc1ccc(OCC)c(NS(=O)(=O)c2cc(-c3cnc(C)o3)ccc2OC)c1 | inactive: -22.2% | – |
| COc1ccc(OC)c(NC(=O)c2c(N3CCCC3=O)c3cc(OC)ccc3n2C)c1 | inactive: -7.39% | – |
| CCc1nn2c(=O)cc(COC(=O)c3cccc(NC(=O)c4cccs4)c3)nc2s1 | inactive: -3.7% | – |
| CCOC(=O)c1c(-c2ccccc2)csc1NC(=O)c1cc(=O)c2ccc(C)cc2o1 | inactive: -2.26% [at 11.5 µM] | – |

| Structure (SMILES) | activity change, negative = inhibition | Potency |
| --- | --- | --- |
| Cc1ccccc1-n1nc(CO)c(C(=O)NCc2cccnc2)n1 | inactive: -5.98% | – |
| COc1cc(C2NC(=O)c3c(sc4c3CCN(C)C4)N2)cc(Br)c1OC(=O)c1ccc(C)cc1 (stereo unspecified) | inactive: -0.585% | – |
| CCOC(=O)C1CCN(C(c2ccc(SC)cc2)c2c(O)cc(C)n(Cc3ccco3)c2=O)CC1 (stereo unspecified) | inactive: -0.281% | – |
| COc1ccc(N2CCN(C(=O)CCn3c(=O)[nH]c4cc(OC)c(OC)cc4c3=O)CC2)cc1 | inactive: 1.65% | – |
| Cc1cccc(NC(=O)CCS(=O)(=O)c2cccc3nsnc23)c1C | inactive: -7.6% | – |
| COc1ccccc1N1CCN(c2ncnc3onc(-c4ccc(F)cc4)c23)CC1 | inactive: -4% | – |
| CCOC(=O)CSC1=Nc2ccccc2C2=NC(CCC(=O)NCc3ccc(F)cc3)C(=O)N12 (stereo unspecified) | inactive: -12.5% | – |
| O=C(NCc1cccc(F)c1)C1CCCN(C(=O)N2CCOc3ccccc32)C1 (stereo unspecified) | inactive: -7.03% | – |
| CC1CN(C(=O)N2CCC(C(=O)NCc3cccs3)CC2)c2cc(Cl)ccc2O1 (stereo unspecified) | inactive: -22.9% | – |
| Cc1ccc(C)c(NC(=O)C2CCCN(c3nc4ccccc4s3)C2)c1 (stereo unspecified) | inactive: 13.9% | – |
| CCc1ccccc1NC(=O)C1CCN(S(=O)(=O)c2ccccc2)CC1 | inactive: -16.9% | – |
| COc1ccc(CNC(=O)C(C)Sc2nc(-c3ccccc3)cc(C(F)(F)F)n2)cc1 (stereo unspecified) | inactive: -13.6% | – |
| O=C(Cn1ccnc1[N+](=O)[O-])NCc1ccccc1 | inactive: 10.5% | – |
| CCCCOc1ccc(C(=O)Nc2ccc3oc(-c4cccnc4)nc3c2)cc1 | inactive: 1.56% | – |
| O=C1c2ccccc2C(=O)C1c1ccccc1 | inactive: 2.37% | – |
| Cc1ccc(CNC(=O)c2ccc3c(c2)c(C)c(C)n3Cc2ccccc2)o1 | inactive: -10.6% | – |
| O=C(COc1ccccc1Cl)OCc1cc(=O)n2nc(C3CCCCC3)sc2n1 | inactive: -10.2% | – |
| COCCOC(=O)C1=C(C)NC2=C(C(=O)CC(c3ccccc3OC)C2)C1c1cccc(O)c1 (stereo unspecified) | inactive: 11.1% | – |
| CCn1ccc2cc(S(=O)(=O)N3CCC(C(=O)NCCc4ccccc4Cl)CC3)ccc21 | inactive: -8.78% | – |
| CCc1ccc(C(=O)c2cnc3ccc(F)cc3c2S(=O)(=O)c2ccccc2)cc1 | inactive: -27.9% | – |
| CC(C)OCCCNC(=O)c1cn(C)c2ccc(S(=O)(=O)N3CCCCCC3)cc2c1=O | inactive: -10.8% [at 11.5 µM] | – |
| Cc1cccc(C(=O)Nc2ccc(-c3nc4ncccc4o3)cc2C)c1 | inactive: 32.6% | – |
| Cc1cccc(S(=O)(=O)c2cn(Cc3ccccc3)c3cc(N4CCOCC4)c(F)cc3c2=O)c1 | inactive: -20.4% | – |
| O=C(O)CCCc1c[nH]c2ccccc12 | inactive: -12% | – |

| Structure (SMILES) | activity change, negative = inhibition | Potency |
| --- | --- | --- |
| Cc1cccc(N2CCN(C(=O)C3CCCN(S(=O)(=O)c4ccc5c(c4)oc(=O)n5C)C3)CC2)c1C (stereo unspecified) | – | active: 5.01 µM |
| COc1ccccc1NC(=O)C(C)Sc1nnc2ccc3ccccc3n12 (stereo unspecified) | inactive: -6.69% | – |
| Cc1ccc(CNC(=O)CN2C(=O)CCn3nc(-c4ccccc4)cc32)cc1 | inactive: -21% | – |
| Clc1ccc2c(c1)C(N1CCNCC1)=Nc1ccccc1O2 | inactive | – |
| CCc1cccc2c(-c3ccccc3)nc(SCC(=O)Nc3ccccc3OC)nc12 | inactive: -5.4% | – |
| CCCn1c(=O)c2sccc2n2c(CCCC(=O)NC3CCC(C)CC3)nnc12 (stereo unspecified) | inactive: -12.2% | – |
| CCCCC/C(C=O)=C\c1ccccc1 | inactive: 2.73% | – |
| O=C(O)CCc1nc(-c2ccccc2)c(-c2ccccc2)o1 | inactive: -7.76% | – |
| O=C(Cn1c(=O)c2cccn2c2ccc(F)cc21)N1CCN(c2ccccc2F)CC1 | inactive: 0.354% | – |
| CC(C)Nc1cc(C(F)(F)F)cc2nc(NC(=O)c3cccnc3)nn12 | inactive: 4.82% | – |
| Fc1ccc(-n2ncc3c(NCCCn4ccnc4)ncnc32)cc1 | inactive: 16.8% | – |
| COc1cccc(C2NC(=O)c3n[nH]c(-c4cccs4)c32)c1 (stereo unspecified) | inactive: -13.2% | – |
| COc1ccc(Br)cc1CNC(=O)c1cnc2sc(N3CCCC3)nn2c1=O | inactive: -0.923% | – |
| CN1CCN(C(CNC(=O)c2ccccc2F)c2ccc3c(c2)OCO3)CC1 (stereo unspecified) | inactive: -10.9% | – |
| O=C(Cn1c(=O)nc(-c2ccccc2)c2ccccc21)NCCc1ccc(Cl)cc1 | inactive: -12.7% | – |
| Cc1cc2[nH]c(=O)c(=O)[nH]c2cc1S(=O)(=O)N1CCN(c2cccc(C(F)(F)F)c2)CC1 | inactive: 12.5% | – |
| CCCCN(CC)CCNC(=O)CCn1cnc2onc(-c3ccc(F)cc3)c2c1=O | inactive: -0.879% | – |
| COc1ccc(NC(=O)c2sc3nc(-c4cc5ccc(OC)cc5oc4=O)[nH]c(=O)c3c2C)cc1 | inactive: -0.935% | – |
| Cc1cccc(-n2cc(-c3ccccc3)c3c(N4CCC(C)CC4)ncnc32)c1 | inactive: -21.9% | – |
| COc1ccc(-c2cn3nc(N4CCCC(C(=O)Nc5cc(C)ccc5C)C4)sc3n2)cc1 (stereo unspecified) | inactive: -10.4% | – |
| COc1cc(NC(=O)NCC2CCN(Cc3ccccc3Cl)CC2)cc(OC)c1OC | inactive: -9.63% | – |
| CCOC(=O)c1ccccc1NC(=O)c1c(C)oc2ncnc(N3CCOCC3)c12 | inactive: -5.18% | – |
| COc1cccc(-n2c(=O)c3c(C)c(C)sc3n(Cc3ccccc3C#N)c2=O)c1 | inactive: -17.1% | – |
| COc1ccc(-c2nc3sc(CCNC(=O)C(=O)Nc4ccccc4C#N)c(C)n3n2)cc1 | inactive: -4.15% | – |
